Experimental data as given in article PMC4336329 (PLoS ONE, 2015).
The whole screen tested about 310,000 compounds, of which about 2,200 (0.71%) showed an effect of 50% or more. The effect is printed as a negative number. The list shows a part of the results.

target: human ether-à-go-go-related gene (hERG) potassium channel (human, UniProt Q12809); experiment: primary screen, population patch clamp on CHO cells stably expressing hERG
Sequence (Q12809 whole entry, looked up): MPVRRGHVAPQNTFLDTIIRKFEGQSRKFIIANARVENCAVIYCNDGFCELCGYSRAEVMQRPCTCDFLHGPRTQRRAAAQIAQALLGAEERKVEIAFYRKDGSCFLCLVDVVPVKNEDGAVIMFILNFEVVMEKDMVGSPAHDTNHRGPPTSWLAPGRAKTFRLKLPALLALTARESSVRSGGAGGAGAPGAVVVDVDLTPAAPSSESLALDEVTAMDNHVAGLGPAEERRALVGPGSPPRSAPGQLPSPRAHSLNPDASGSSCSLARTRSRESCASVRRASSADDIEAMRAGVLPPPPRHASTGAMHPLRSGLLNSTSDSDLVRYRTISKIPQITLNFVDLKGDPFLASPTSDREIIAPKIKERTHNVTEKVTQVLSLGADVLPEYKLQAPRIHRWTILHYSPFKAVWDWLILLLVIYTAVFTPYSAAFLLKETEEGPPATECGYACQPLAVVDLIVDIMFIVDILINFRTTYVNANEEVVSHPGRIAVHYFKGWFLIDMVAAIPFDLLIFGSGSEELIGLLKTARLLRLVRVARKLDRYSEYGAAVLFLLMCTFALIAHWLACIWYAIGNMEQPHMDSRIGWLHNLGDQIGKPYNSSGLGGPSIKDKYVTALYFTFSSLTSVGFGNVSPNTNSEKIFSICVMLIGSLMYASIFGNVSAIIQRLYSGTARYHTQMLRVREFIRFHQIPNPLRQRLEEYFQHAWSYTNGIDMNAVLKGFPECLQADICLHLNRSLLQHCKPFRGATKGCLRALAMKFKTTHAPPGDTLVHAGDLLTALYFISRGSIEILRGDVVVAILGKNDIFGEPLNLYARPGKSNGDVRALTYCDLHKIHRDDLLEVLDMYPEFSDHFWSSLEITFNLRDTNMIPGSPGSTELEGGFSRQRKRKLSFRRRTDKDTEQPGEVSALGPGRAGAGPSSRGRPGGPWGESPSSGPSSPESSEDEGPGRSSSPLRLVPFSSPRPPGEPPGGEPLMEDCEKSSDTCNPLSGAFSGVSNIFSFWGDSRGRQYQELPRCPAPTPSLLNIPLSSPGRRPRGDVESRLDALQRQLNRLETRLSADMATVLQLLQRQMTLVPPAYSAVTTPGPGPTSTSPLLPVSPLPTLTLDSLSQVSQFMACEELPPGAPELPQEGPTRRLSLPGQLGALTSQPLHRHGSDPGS

SMILES	hERG current change (%, negative = inhibition) at 1uM [%]
Cc1[nH][nH]c(=O)c1C=NCc1cccc(C(F)(F)F)c1	13.4
Fc1ccccc1-c1nc(-c2ccc(Br)o2)no1	10.5
CCOC(=O)NNc1nncc2ccccc12.Cl	8.4
COc1ccc2c(c1)c(C(=O)CN1CCN(C)CC1)c(C)n2Cc1ccccc1	-9.79
O=C(N/N=C\c1ccco1)Nc1cccc(Cl)c1	4.23
C/C(=N\Nc1nc(-c2ccccc2O)nc2ccccc12)c1ccccc1	3.6
Cc1ccc(O)c(NC(=O)c2cc(C)no2)c1	6.38
Cc1nc(-c2nc(-c3c(C(=O)NNC(=O)Nc4ccccc4)noc3C)cs2)cs1	14.7
COc1ccccc1NC(=O)COC(=O)/C=C/c1ccc2c(c1)OCO2	9.01
CC(C)C[C@@H]1NC(=O)[C@H](CO)NC(=O)c2cc([N+](=O)[O-])cc(I)c2OCC[C@@H](C(N)=O)NC1=O	5.89
COc1ccc(S(=O)(=O)NCc2ccc(C(=O)N3CCC4(CC3)OCCO4)cc2)cc1	-7.81
CN(C(=O)COC(=O)c1ccc(Cl)c(S(=O)(=O)N2CCCCC2)c1)C1(C#N)CCCCC1	-6.43
O=C(COc1ccc2ccccc2c1)N1CCN(CC2CC3C=CC2C3)CC1.O=C(O)C(=O)O (stereo not drawn)	12.7
Cc1cc2c(cc1S(=O)(=O)Nc1ccc(F)cc1)n(C)c(=O)c(=O)n2C	11.4
FC(F)(F)c1ccc(N2CCN(c3ncnc4c3nnn4Cc3ccccc3Cl)CC2)cc1	15.9
Cc1nnc(NCc2ccncc2)c2ccccc12	2.74
O=C(Oc1ccc(N(Cc2cccs2)C2=NS(=O)(=O)c3ccccc32)cc1)c1ccccc1Cl	0.886
OCCCn1c(C(CO)Nc2nc(-c3ccc(Cl)cc3)cs2)nc2ccccc21 (stereo not drawn)	-2.81
O=C(O/N=C\c1ccc(N2CCOCC2)c([N+](=O)[O-])c1)c1ccccc1Cl	-12.8
CCOC(=O)N1[C@@H]2C=C(C)[C@@H]2[C@@H]2[C@@H](C)C(=O)N21	4.04
CS(=O)(=O)Nc1ccccc1C(=O)N1CCOCC1	10.2
COc1ccc(CNC(=O)c2c[nH]c3ccccc3c2=O)cc1	11.9

SMILES	hERG current change (%, negative = inhibition) at 1uM [%]
CC(C)CCNC(=O)c1cc2c(s1)-c1ccccc1S(=O)(=O)C2	13.1
C=CCn1c(SCC(=O)NC2CCCCC2)nnc1-c1ccccn1	5.62
Cc1ccc2c(c1)N(CC(=O)N1CCc3ccccc3C1)C(=O)CO2	-3.29
Clc1ccc(-c2nc3ccccc3n2OCc2ccccc2)cc1	-1.89
CC1Sc2ccc(S(=O)(=O)N3CCC(C(=O)NCc4ccco4)CC3)cc2NC1=O (stereo not drawn)	5.49
COCc1cc(=O)n2[nH]cc(-c3ccccc3)c2n1	12.9
O=C(NCC1CC1)C1(S(=O)(=O)c2ccccc2)CC=CC1	13.8
O=C(NCC1CCCO1)C1CCCN(S(=O)(=O)c2cccc(C(F)(F)F)c2)C1 (stereo not drawn)	10.4
Cc1ccccc1C(=O)NN1CC(C(=O)OCc2ccc(Cl)c(Cl)c2)CC1=O (stereo not drawn)	1.58
Cc1ccc(S(=O)(=O)/N=C(/Nc2ccc([N+](=O)[O-])cc2)c2ccccc2)cc1	8.66
O=C(NNc1cc(Cl)ccc1Cl)c1c(F)cccc1Cl	14.3
CCOC(=O)C1CCCN(Cc2cccs2)C1 (stereo not drawn)	7
CCOC(=O)c1cc(-c2ccc(F)cc2)n(CC(=O)N2CCCC2)c1C	8.68
CC(C)(C)c1ccc(OCC(=O)NNC(=O)Nc2ccccc2)cc1	-5.74
Cc1sc2ncnc(N3CCC(C(=O)NNC(=O)COc4ccccc4F)CC3)c2c1C	-9.49
Cc1nc(C(=O)NCCC(C)C)sc1C1(C)CC(c2ccccc2)=NO1 (stereo not drawn)	4.71
Cc1ccc(N2C(=O)CC(SCC(=O)Nc3ccc(S(N)(=O)=O)cc3)C2=O)cc1 (stereo not drawn)	6.92
COc1ccc(Nc2nc(N3CCOCC3)nc(N3CCOCC3)n2)c(OC)c1	10.8
CC(C)CN(C(=O)COC(=O)CSc1ccccc1)c1c(N)n(Cc2ccccc2)c(=O)[nH]c1=O	11.6
O=C1N=C(N2CCOCC2)S/C1=C/c1cc2c(cc1[N+](=O)[O-])OCO2	11.7
CCCCCC(O)CCc1n[nH]c(=S)n1-c1ccccc1 (stereo not drawn)	6.36
COc1ccc(C2Nc3ccccc3C(=O)N2Cc2ccco2)cc1COc1ccc([N+](=O)[O-])cc1 (stereo not drawn)	11.3

SMILES	hERG current change (%, negative = inhibition) at 1uM [%]
Cc1ccc(C(=O)N2CCCCC2)cc1NC1=C(Cl)C(=O)N(Cc2ccccc2)C1=O	6.72
COc1cc2c(=O)n(Cc3ccccc3)c(=O)n(CC(=O)NCCc3ccccc3)c2cc1OC	12
CC(C(=O)Nc1ccc2nccnc2c1)N1C(=O)C2C3C=CC(C3)C2C1=O (stereo not drawn)	13.1
CCOC(=O)c1[nH]c(C)c(C(=O)Nc2ccc(C)cc2C)c1C	2.73
Nc1nonc1-n1nnc(C(=O)N/N=C/c2ccc(Br)cc2)c1-c1ccc2c(c1)OCO2	5.21
CC(C)(C)C(=O)Nc1c(Cl)cccc1OC(F)(F)F	12.4
NC(=O)c1ccc(N2CCOCC2)nc1	-8
COc1ccc(C(=O)Nc2ccnn2C2CCN(C(=O)c3cc(C)on3)CC2)cc1	10.4
O=C(COC(=O)Cc1cn2ccsc2n1)NCc1ccc2c(c1)OCO2	-1.61
c1ccc(-c2noc(CSc3nnc(Cc4cccs4)n3-c3ccccc3)n2)cc1	13.2
CCC(C)C12CN3CCN(CC(C)(C3)C1O)C2 (stereo not drawn)	12.2
COc1ccc(-n2nc(C(=O)NCC(=O)NCCCN3CCOCC3)c3ccccc3c2=O)cc1Cl	4.53
Cc1cc(C)c2nc(SCC(=O)N(C)C3CCS(=O)(=O)C3)cc(C)c2c1 (stereo not drawn)	14.8
COc1cc2c(cc1NCc1ccccn1)oc1ccccc12	-8.02
CC(C)=CCc1c2c(c3occ(-c4ccc(O)cc4)c(=O)c3c1O)C=CC(C)(C)O2	15.3
COc1ccccc1CNC(=O)CN1C(=O)NC2(CCCc3sccc32)C1=O (stereo not drawn)	7.34
COc1cc(S(=O)(=O)Nc2ccc(C)cc2)ccc1N=Cc1c(C)[nH]n(-c2ccc(C)cc2)c1=O	12.6
C/C(=N\NC(=S)NC(C)C)c1ccco1	0.11
COc1ccc(C2CC(=O)C=C(NCc3ccc4c(c3)OCO4)C2)cc1 (stereo not drawn)	-32.6
O=C(Nc1ccccc1-c1ccccc1)c1cccs1	9.1
Cc1ccc(C(=O)c2ccccc2C(=O)Nc2ccccc2)cc1	12.6
O=C(CSc1nnc(COc2ccc(Br)cc2)o1)NC1CCCCC1	10.8

SMILES	hERG current change (%, negative = inhibition) at 1uM [%]
COc1ccc(C(=S)N2CCOCC2)cc1OS(=O)(=O)c1ccc(Br)cc1	-16.3
O=C(CCS(=O)(=O)c1ccc(Br)cc1)N1CCN(c2ccccc2)CC1	4.18
Cc1cccc(CCNS(=O)(=O)c2ccc(S(=O)(=O)NC3CCCC3)cc2)c1	8.77
NS(=O)(=O)c1ccc(CNC(=O)c2cc(-c3cccs3)nc3ccccc23)cc1	2.81
CN1CCN(C(=O)c2ccc(-c3ccccc3)cc2)CC1	4.93
COc1c(Cl)cccc1-c1cn2ccccc2n1	13.7
COc1ccc(Cl)cc1C(=O)NCC(C)C	10.2
COc1ccc(-n2nc3c(N4CCC(C(=O)NCCc5ccccc5C)CC4)nnc(C)c3c2C)cc1	24.2
CC(=O)NC(Cc1ccc(F)cc1)C(=O)N1CCN(C(=O)NCc2ccccc2)CC1 (stereo not drawn)	1.78
CCN(CC)C(=O)Cn1cc(S(=O)(=O)Cc2cccc([N+](=O)[O-])c2)c2ccccc21	-22.1
CN(C)c1nc2ccccc2n(C)c1=O	14.2
COC(=O)c1ccc(COc2ccc(C=O)cc2OC)o1	13.8
CCCOC(=O)/C(C(N)=NCc1ccccc1)=C(\O)OCCC	8.96
CC(C)(/C=N/O)/[N+]([O-])=C/c1ccccc1	17.9
CC1=CC(=NOC(=O)/C=C/c2ccccc2)C=C(C)C1=O	14.7
COC(=O)Cn1ccc(-c2ccc(Cl)cc2)c(C#N)c1=O	4.67
COc1ccc(-c2sc(Nc3ccccc3)n[n+]2-c2ccc(F)cc2)cc1Br.[Cl-]	6.75
Cc1ccc(Cl)cc1N1CCN(CCN)CC1	3.96
COC(=O)c1ccccc1N/C=C1\CCc2c(c(C)nn2-c2ccccn2)C1=O	11.1
O=C(O)CCCC(=O)Nc1ccn(-c2ccccc2)n1	-2.88
O=C(NCC1CC1)c1ccc(Nc2nc3ccc(Br)cc3[nH]2)cc1	6.24
